Laboratory results taken from the antibiotic and cytotoxicity screens of Wong et al. (2023).
The list shows a part of the results.

These compounds were tested on HepG2 (assay: cytotoxicity call (relative viability < 0.9)). Settings: 10 µM.

Compound | cytotoxicity call
CC(C)Oc1ccc2c(=O)c(-c3ccccc3)coc2c1 | inactive
N[C@@H](Cc1ccc(F)cc1)C(=O)O | inactive
CC(C)NC(=O)N(C)C[C@H]1Oc2ccc(NS(=O)(=O)c3ccc(F)cc3)cc2CC(=O)N([C@@H](C)CO)C[C@H]1C | inactive
O=C(C[C@@H]1CC[C@@H]2[C@H](COC[C@H](O)CN2C(=O)c2ccc3c(c2)OCO3)O1)NCCN1CCCCC1 | inactive
Oc1cccc(c1)/C/1=C/2\CC/C(=C(\c3cccc(c3)O)c3ccc([nH]3)/C(=C\3/C=CC(=N3)/C(=C\3/C=CC1=N3)c1cccc(c1)O)c1cccc(c1)O)N2 | inactive
C[C@@H]1CN([C@H](C)CO)C(=O)c2cc(NC(=O)Nc3ccccc3)ccc2O[C@H]1CN(C)Cc1ccc(Oc2ccccc2)cc1 | active
Cc1cccc(NC(=O)C(C)C)c1 | inactive
CO[C@@H](CN(C)S(=O)(=O)c1ccc(C)cc1)[C@@H](C)CN([C@@H](C)CO)S(=O)(=O)c1cccc(Cl)c1 | inactive
C[C@H]1CN([C@@H](C)CO)C(=O)c2ccccc2-c2ccccc2CO[C@H]1CN(C)Cc1cccc(C(F)(F)F)c1 | inactive
C[C@H](CO)N1C[C@H](C)[C@H](CN(C)CC2CCCCC2)Oc2c(NC(=O)Nc3ccccc3)cccc2C1=O | inactive
C[C@H](CO)N1C[C@H](C)[C@H](CN(C)C(=O)CN2CCOCC2)Oc2ncc(C#C[C@@H](C)O)cc2C1=O | inactive
CC[C@@H](O)C[C@H]1CC[C@H]([C@@H](C)C(=O)O[C@@H](C)C[C@H]2CC[C@H]([C@@H](C)C(=O)O[C@@H](C)C[C@H]3CC[C@H]([C@@H](C)C(=O)O[C@@H](C)C[C@H]4CC[C@H]([C@@H](C)C(=O)O)O4)O3)O2)O1 | active
